This note sets out measurements from PubChem BioAssay AID1159614 (National Center for Advancing Translational Sciences (NCATS), 2016).

Among all 45,000 compounds or so, about 65 (0.1%) were called active. The call rests on the fitted dose curve; in most records, active means well fitted activation curve with a large enough effect; inconclusive means small, poorly fitted or top-dose-only effect; inactive means no such curve, though single readings can be large or run the other way. Some of the results follow.

The target in this experiment is Galactocerebrosidase (Homo sapiens) (UniProt P54803). Briefly: A Novel Cell-Based Assay to Identify Small Molecules for B -Galactocerebrosidase. Further: 0% is about no effect; nearly all actives have a fitted effect of over 65% in size. To be noted: 145M-Twi-hGALC-G270D cells (Twitcher mouse brain line with human GALC G270D), HMU-beta-Gal fluorescence, 48 h; series mostly up to 57.5 µM; activation: at the top concentration. The method, boiled down: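 Fluorogenic HMU-b-Gal hydrolysis (0.1 mM final, pH 5.2 citrate-phosphate with 1 mg/mL sodium taurocholate; carbonate stop buffer) measures mutant GALC activity after compound treatment of live 145M-Twi Twitcher brain cells stably carrying human GALC-G270D, with wild-type GALC line alongside; activation sought.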
Sequence of UniProt P54803 (P54803 whole entry, looked up): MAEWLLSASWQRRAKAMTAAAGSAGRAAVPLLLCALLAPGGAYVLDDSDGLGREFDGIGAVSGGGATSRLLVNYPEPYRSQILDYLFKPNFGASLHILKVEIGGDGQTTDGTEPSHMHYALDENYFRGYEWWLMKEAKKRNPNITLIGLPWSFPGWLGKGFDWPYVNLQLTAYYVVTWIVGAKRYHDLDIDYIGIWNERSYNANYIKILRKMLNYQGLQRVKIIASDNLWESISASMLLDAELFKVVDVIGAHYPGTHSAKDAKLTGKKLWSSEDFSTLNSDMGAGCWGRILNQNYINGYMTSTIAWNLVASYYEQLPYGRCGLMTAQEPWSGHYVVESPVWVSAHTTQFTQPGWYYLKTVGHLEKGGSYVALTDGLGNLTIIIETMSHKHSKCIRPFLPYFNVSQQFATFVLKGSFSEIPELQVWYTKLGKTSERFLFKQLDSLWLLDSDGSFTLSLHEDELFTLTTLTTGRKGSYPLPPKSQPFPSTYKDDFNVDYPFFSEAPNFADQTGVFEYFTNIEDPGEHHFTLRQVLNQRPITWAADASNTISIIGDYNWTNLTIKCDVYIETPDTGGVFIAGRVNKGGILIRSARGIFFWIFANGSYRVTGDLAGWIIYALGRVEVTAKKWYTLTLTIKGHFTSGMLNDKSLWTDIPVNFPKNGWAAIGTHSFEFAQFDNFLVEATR
In the case of `CC(=O)c1cccc(NC(=O)c2cc(-c3ccc(Cl)s3)nc3ccccc23)c1`, the “activation” value is inactive: -6.3%.

Turning to `COc1ccc(NC(=O)CC2C(=O)N(c3cccc(C)c3)C(=O)N2C2CCCCC2)cc1` (stereo unspecified), the “activation” value was inactive: -20.2%.

Regarding `COc1cccc(C(=O)Nc2ccc(-c3cc(C(F)(F)F)nn3-c3ccccc3)cc2)c1`, the “activation” value is inactive: -24.9%.

As to `CC(C)Cc1ccc(S(=O)(=O)Nc2cc3c(cc2N2CCOCC2)n(C)c(=O)c(=O)n3C)cc1`, the “activation” value is inactive: -6.3%.

In the case of `CCOc1ccccc1CNS(=O)(=O)c1ccc2[nH]c(=O)ccc2c1`, the “activation” value is inactive: -21.4%.

Turning to `Cc1ccc(C)c(CN2C(=O)N(c3cc(Cl)ccc3C)S(=O)(=O)c3ccccc32)c1`, the “activation” value is inactive: -1.96%.

Consider `Cc1ccc(C)c(Cn2c(-c3cccs3)nc3ccccc32)c1`, for which the “activation” value was inactive: -40%.

Take `CC(C)c1ccc(S(=O)(=O)c2nnn3c2nc(N2CCCCC2)c2sccc23)cc1`: the “activation” value is inactive: -4.7%.

With `CCC(C)(Oc1ccc(C2(c3ccc(OC(C)(CC)C(=O)O)cc3)CCCCC2)cc1)C(=O)O` (stereo unspecified), the “activation” value was inactive: -21.2%.

For the molecule `CCCCN(C)CCCNC(=O)c1cc(-c2ccc(Br)s2)nc2ccccc12`, the “activation” value is inactive: -13.1%.

Regarding `CCOc1ccc(CCNC(=O)CCCn2nc(C)c3sc4ccccc4c3c2=O)cc1`, the “activation” value was inactive: -11.3%.

`COc1cccc(Nc2sc(C(=O)c3ccc(F)cc3)c(N)c2C(=O)NCc2ccc(Cl)cc2)c1`: the “activation” value was inactive: -0.887%.

Turning to `Cc1cccc(NC(=O)CCCCCn2c(=O)[nH]c3ccsc3c2=O)c1`, the “activation” value is inactive: -5.31%.

For `CN(Cc1ccccc1)S(=O)(=O)c1cc(Br)cc2c1N(C(=O)C1CC1)CC2`, the “activation” value is inactive: -12.4%.

For the molecule `CCC(C(=O)Nc1c(C)cc(C)cc1C)n1c(=O)c(-c2ccccc2NC(C)=O)nc2ccccc21` (stereo unspecified), the “activation” value was inactive: -20.6%.

For `CCOC(=O)C1CCCN(C(=O)c2cc3c(=O)[nH]c4ccc(C)cc4c3s2)C1` (stereo unspecified), the “activation” value is inactive: -2.13%.

As to `COc1ccc(NC(=O)CSc2nnc(NC(=O)Nc3ccc(OC)cc3)s2)cc1`, the “activation” value was inactive: -14.1%.

In the case of `CCN(CCCNC(=O)CN1N=C(c2ccc(OC)cc2)CCC1=O)c1cccc(C)c1`, the “activation” value was inactive: -34%.

As to `Cc1ccc(-c2noc(CNC(=O)c3ccc(Br)o3)n2)cc1`, the “activation” value is inactive: -4.91%.

`Cc1cccc(N2CCN(C(=O)c3cn(CC(C)C)c(=O)c4c3c3ccccc3n4C)CC2)c1C`: the “activation” value was inactive: -6.64%.

On to `COc1ccc(-c2ccc(NS(=O)(=O)c3ccc(C(C)=O)cc3)cc2)nn1`, for which the “activation” value is inactive: -10.6%.

As to `COc1cccc(N2CC(NC(=O)CCCc3ccccc3)CC2=O)c1` (stereo unspecified), the “activation” value is inactive: -15.3%.

Consider `Cc1ccc(NS(=O)(=O)c2c(C)[nH]c(=O)[nH]c2=O)c(C)c1`, for which the “activation” value was inactive: -8.82%.

For `CCOc1ccccc1CNC(=O)C1CCN(c2nn3cc(-c4ccc(F)cc4)nc3s2)CC1`, the “activation” value was inactive: 6.16%.

As for `CCCCCCOc1ccc(C2C(=O)N(C3CCCCC3)CC(=O)N2CCC)cc1` (stereo unspecified), the “activation” value was inactive: -9.97%.

For the molecule `Cc1ccccc1-c1nc2cc(NC(=O)Cc3ccc(Cl)cc3)ccc2o1`, the “activation” value is inactive: -4.05%.

Turning to `Cc1cccc(N2CCN(C(=O)c3cccc(-n4c(C)nc5cccnc54)c3)CC2)c1C`, the “activation” value is inactive: -31.1%.

In the case of `COc1ccccc1Cc1nc2ccccc2nc1SCC(=O)N(C)c1ccc(F)cc1`, the “activation” value was inactive: 2.72%.

Take `Cc1cccc(N2CCN(C(=O)Nc3cn(CC(C)C)c(=O)c4ccccc34)CC2)c1C`: the “activation” value is inactive: -26.8%.

`Cc1nnc(N2CCC(C(=O)NCCc3ccccc3Cl)CC2)c2nn(-c3ccccc3)c(C)c12`: the “activation” value is inactive: -19.2%.

Take `Cc1ccc(C(=O)Nc2cc3nn(-c4ccccc4)nc3cc2Cl)c(C)c1`: the “activation” value was inactive: -5.97%.

On to `CC(C)c1ccc(CN(Cc2ccco2)c2cnc(S(C)(=O)=O)nc2C(=O)Nc2ccc(F)cc2)cc1`, for which the “activation” value was inactive: -3.64%.

Consider `N#C/C(=C\c1ccc(Cl)cc1Cl)c1nc(-c2cccc(Cl)c2)cs1`, for which the “activation” value is inactive: -3.24%.

As for `CCOc1ccccc1N(CC(=O)NCCSc1ccccc1)S(=O)(=O)c1ccccc1`, the “activation” value was inactive: 3.81%.

On to `CCCCN(C)C(=O)C1CCCN(c2ncnc3onc(C)c23)C1` (stereo unspecified), for which the “activation” value is inactive: -39.2%.

With `COc1ccccc1N1CCN(C(=O)Cn2cnc3onc(-c4ccc(F)cc4)c3c2=O)CC1`, the “activation” value is inactive: -29.1%.

As to `CCc1nn(CC(=O)NCCCN(CC(C)C)CC(C)C)c(=O)c2cc3sc(C)cc3n12`, the “activation” value is inactive: -14.5%.

In the case of `COc1cccc(N2CC(NC(=O)c3ccco3)CC2=O)c1` (stereo unspecified), the “activation” value was inactive: -11.7%.

As to `COc1ccc(Cn2c(=O)c3oc4ccccc4c3n(Cc3cccc(C(F)(F)F)c3)c2=O)cc1`, the “activation” value was inactive: -7.27%.

With `O=C(c1ccc2c(=O)n(CCc3ccccc3)c(=O)[nH]c2c1)N1CCN(c2ccc(F)cc2)CC1`, the “activation” value was inactive: -22.9%.

In the case of `Cc1nn(-c2ccccc2)c2c1N(CC(=O)N1CCN(c3cccc(Cl)c3)CC1)C(=O)CS2`, the “activation” value is inactive: -11.3%.

Consider `CCC(C)NC(=O)c1ccc2c(c1)N(Cc1ccccc1)C(=O)c1ccccc1S2` (stereo unspecified), for which the “activation” value was inactive: 0.28%.

In the case of `Cc1ccccc1-n1c(SCc2ccc(Cl)cc2)nc2[nH]ncc2c1=O`, the “activation” value is inactive: -20.7%.

As for `COc1cccc(N2CCN(C(=O)CCc3c(C)nc4c(c3C)c(=O)n(C)c(=O)n4C)CC2)c1`, the “activation” value was inactive: -4.9%.

As to `CCN(CC)c1cc2c(cc1F)c(=O)c(S(=O)(=O)c1ccc(OC)cc1)cn2CC`, the “activation” value is inactive: -18.8%.

`CCOc1ccc(CNC(=O)C2CCCN(S(=O)(=O)c3ccc4c(ccn4C)c3)C2)cc1` (stereo unspecified): the “activation” value was inactive: -17%.

For `Cc1ccc(-c2nnc(SCc3cccc(C#N)c3)o2)cc1`, the “activation” value is inactive: -2.5%.

As to `CCOC(=O)Cn1c(=O)n(-c2ccccc2OC)c2nc(-c3cccc(F)c3)nc(C(N)=O)c21`, the “activation” value is inactive: -39%.

On to `CCOC(=O)c1ccccc1NC(=O)N(C(C)C)C1CCN(C(C)=O)CC1`, for which the “activation” value was inactive: -4.09%.

For the molecule `Cn1nnc2c(N3CCN(c4ccccc4Cl)CC3)ncnc21`, the “activation” value was inactive: -20.8%.

As for `COc1ccc(-c2nc(CN3CCC(C(=O)NCc4ccccc4)CC3)c(C)o2)cc1OC`, the “activation” value was inactive: -11.7%.

With `COc1ccc(-c2c3c(=O)n(C)c(=O)n(C)c3c3c(C)nc4ccccc4n23)cc1`, the “activation” value is inactive: -13.9%.

As to `CC(C)(C)c1ccc(-c2nc(SCCCOc3ccccc3)n3[nH]c(=O)cc3n2)cc1`, the “activation” value is inactive: -5.22%.

As to `Cc1ccc2c(c1)-c1c(cnc3cc(-c4ccccc4)nn13)CO2`, the “activation” value was inactive: -9.59%.

Turning to `CCCCc1ccc(NC(=O)c2ccc(=O)n(Cc3cccc(C)c3)c2)cc1`, the “activation” value is inactive: -36.9%.

For the molecule `CN(C)CCNC(=O)c1ccc2c(=O)n3c(nc2c1)CCCCC3`, the “activation” value was inactive: -6.05%.

For `COc1ccc(-c2nc(C)c(CCNS(=O)(=O)c3cc(C)c(C)cc3C)s2)cc1`, the “activation” value is inactive: -20.5%.

On to `O=C(NCCc1ccccc1)c1nnc(Cc2cccc(F)c2)o1`, for which the “activation” value is inactive: -16.3%.

For `CCOC(=O)c1cccnc1SCC(=O)Nc1ccc(C)cc1C`, the “activation” value is inactive: -9%.

Turning to `CCCCN(CCCC)CCNC(=O)c1cn(CC)c2ccc(S(=O)(=O)N(C)C3CCCCC3)cc2c1=O`, the “activation” value was inactive: -23.4%.

As for `COc1ccc(Cl)cc1NS(=O)(=O)c1ccc2c(c1)NC(=O)CC(=O)N2`, the “activation” value was inactive: -7.61%.
